{"source": "the supplement of paper PMC8728848", "binders": {"B1": {"name": "PX9896A-bth-573-26-573 (Bacteroides thetaiotaomicron) (protein)", "chain": "ETNNLKTKEDMYKYFGTSKSMLTHVYSYMPQGYQLFATSGGIFTEDRYSMRDCASDDGEFGAYADNIQNTNNGNWSPIKTYDDSWTLYRGIRAANSFIAEIAQVDFTRYEHDGQYTNWMKQLKYFPYEARVLRAHYFFELARRYGDIAMPLEVLTEEEANTIGKTPFSEVISFIVSECDDAANNLPDSYVNEPGAEIGRVTKGFAMAVKSKALLYAASKLHNPSMDTELWKKSAKAAIDIINTGLYSLDPQESANNLDSKEVVLMRINGDDSDFEMFNLPLRMTAGTRTSSLIPYSNYPSQNLVDAFETVNGYKVTLENTGWVCEDPAFDPQSPYENRDKRFYRAILANGMSFKDYTIETFKGGADDGIVSQGGSPTGYFLRKYIQEATSFEPGKEAVSKHHWVIYRYAETLLTYAESMVNAFNDVNYTDETYKYSALWAINEVRKNADMPLIPSMGKDEFMERLYNEWRVEFAFEDHRFWDVRRWKIADTTQRELYGVKIEKQADGTFNFYKNLYETRNWRDCMYLYPIPQSELYKNTNLNPQNTGW"}}, "experiment_in_all_cases": "glycan array binding signal (z-score within array); higher = stronger binding", "conditions_in_all_cases": "glycan notation: IUPAC condensed, linker removed", "key": {"[1]": {"target": "Fuc(a1-2)Gal(b1-4)GlcNAc(b1-3)Gal(b1-4)GlcNAc(b1-3)Gal(b1-4)GlcNAc", "how_it_was_run": "(§1)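 Columns mapping to the same glycan were averaged after glycan names were converted to IUPAC-condensed notation. The data come from 3228 arrays in the Consortium for Functional Glycomics database, limited to those with an available protein sequence. Binding is reported as a within-array Z-score averaged across arrays of one protein sequence and across linkers.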"}, "[2]": {"target": "Fuc(a1-2)Gal(b1-4)GlcNAc(b1-3)GalNAc", "how_it_was_run": "as §1"}, "[3]": {"target": "Fuc(a1-2)Gal(b1-4)GlcNAc(b1-3)[Fuc(a1-2)Gal(b1-4)GlcNAc(b1-6)]GalNAc", "how_it_was_run": "as §1"}, "[4]": {"target": "Fuc(a1-2)Gal(b1-4)GlcNAc(b1-3)[Fuc(a1-3)[Gal(b1-4)]GlcNAc(b1-6)]Gal(b1-4)Glc", "how_it_was_run": "as §1"}, "[5]": {"target": "Fuc(a1-2)Gal(b1-4)GlcNAc(b1-6)GalNAc", "how_it_was_run": "as §1"}, "[6]": {"target": "Fuc(a1-2)Gal(b1-4)GlcNAc6S", "how_it_was_run": "as §1"}, "[7]": {"target": "Fuc(a1-2)Gal(b1-4)[Fuc(a1-3)]GlcNAc", "how_it_was_run": "as §1"}, "[8]": {"target": "Fuc(a1-2)Gal(b1-4)[Fuc(a1-3)]GlcNAc(b1-2)Man(a1-3)[Fuc(a1-2)Gal(b1-4)[Fuc(a1-3)]GlcNAc(b1-2)Man(a1-6)]Man(b1-4)GlcNAc(b1-4)[Fuc(a1-6)]GlcNAc", "how_it_was_run": "as §1"}, "[9]": {"target": "Fuc(a1-2)Gal(b1-4)[Fuc(a1-3)]GlcNAc(b1-2)[Fuc(a1-2)Gal(b1-4)[Fuc(a1-3)]GlcNAc(b1-4)]Man(a1-3)[Fuc(a1-2)Gal(b1-4)[Fuc(a1-3)]GlcNAc(b1-2)Man(a1-6)]Man(b1-4)GlcNAc(b1-4)GlcNAc", "how_it_was_run": "as §1"}, "[10]": {"target": "Fuc(a1-2)Gal(b1-4)[Fuc(a1-3)]GlcNAc(b1-3)Gal(b1-4)[Fuc(a1-3)]GlcNAc", "how_it_was_run": "as §1"}, "[11]": {"target": "Fuc(a1-2)Gal(b1-4)[Fuc(a1-3)]GlcNAc(b1-3)Gal(b1-4)[Fuc(a1-3)]GlcNAc(b1-3)Gal(b1-4)[Fuc(a1-3)]GlcNAc", "how_it_was_run": "as §1"}, "[12]": {"target": "Fuc(a1-2)Gal(b1-4)[Fuc(a1-3)]GlcNAc(b1-3)GalNAc", "how_it_was_run": "as §1"}, "[13]": {"target": "Fuc(a1-2)Gal(b1-4)[Fuc(a1-3)]GlcNAc(b1-3)[Neu5Ac(a2-6)Gal(b1-4)GlcNAc(b1-6)]Gal(b1-4)Glc", "how_it_was_run": "as §1"}, "[14]": {"target": "Fuc(a1-2)Gal3S(b1-4)GlcNAc", "how_it_was_run": "as §1"}, "[15]": {"target": "Fuc(a1-2)Gal6S(b1-3)GlcNAc", "how_it_was_run": "as §1"}, "[16]": {"target": "Fuc(a1-2)Gal6S(b1-3)GlcNAc6S", "how_it_was_run": "as §1"}, "Fuc(a1-2)Gal6S(b1-4)Glc": {"target": "Fuc(a1-2)Gal6S(b1-4)Glc", "how_it_was_run": "as §1"}, "[17]": {"target": "Fuc(a1-2)Gal6S(b1-4)Glc6S", "how_it_was_run": "as §1"}, "Fuc(a1-2)[Gal(a1-3)]Gal": {"target": "Fuc(a1-2)[Gal(a1-3)]Gal", "how_it_was_run": "as §1"}, "[18]": {"target": "Fuc(a1-2)[Gal(a1-3)]Gal(b1-3)GalNAc", "how_it_was_run": "as §1"}, "[19]": {"target": "Fuc(a1-2)[Gal(a1-3)]Gal(b1-3)GalNAc(b1-3)Gal(a1-4)Gal(b1-4)Glc", "how_it_was_run": "as §1"}, "[20]": {"target": "Fuc(a1-2)[Gal(a1-3)]Gal(b1-3)GlcNAc", "how_it_was_run": "as §1"}, "[21]": {"target": "Fuc(a1-2)[Gal(a1-3)]Gal(b1-3)GlcNAc(b1-2)Man(a1-3)[Fuc(a1-2)[Gal(a1-3)]Gal(b1-3)GlcNAc(b1-2)Man(a1-6)]Man(b1-4)GlcNAc(b1-4)GlcNAc", "how_it_was_run": "as §1"}, "[22]": {"target": "Fuc(a1-2)[Gal(a1-3)]Gal(b1-3)GlcNAc(b1-2)Man(a1-3)[Fuc(a1-2)[Gal(a1-3)]Gal(b1-3)GlcNAc(b1-2)Man(a1-6)]Man(b1-4)GlcNAc(b1-4)[Fuc(a1-6)]GlcNAc", "how_it_was_run": "as §1"}, "[23]": {"target": "Fuc(a1-2)[Gal(a1-3)]Gal(b1-3)GlcNAc(b1-3)GalNAc", "how_it_was_run": "as §1"}, "[24]": {"target": "Fuc(a1-2)[Gal(a1-3)]Gal(b1-3)GlcNAc(b1-6)GalNAc", "how_it_was_run": "as §1"}, "[25]": {"target": "Fuc(a1-2)[Gal(a1-3)]Gal(b1-4)Glc", "how_it_was_run": "as §1"}, "[26]": {"target": "Fuc(a1-2)[Gal(a1-3)]Gal(b1-4)GlcNAc", "how_it_was_run": "as §1"}, "[27]": {"target": "Fuc(a1-2)[Gal(a1-3)]Gal(b1-4)GlcNAc(b1-2)Man", "how_it_was_run": "as §1"}, "[28]": {"target": "Fuc(a1-2)[Gal(a1-3)]Gal(b1-4)GlcNAc(b1-2)Man(a1-3)[Fuc(a1-2)[Gal(a1-3)]Gal(b1-4)GlcNAc(b1-2)Man(a1-6)]Man(b1-4)GlcNAc(b1-4)GlcNAc", "how_it_was_run": "as §1"}}, "note": "The other results are listed elsewhere or left out."}
{"binder": "B1", "values": [{"measurement": "glycan array binding signal (z-score)", "setting": "[1]", "value": -0.275}, {"measurement": "glycan array binding signal (z-score)", "setting": "[2]", "value": 0.126}, {"measurement": "glycan array binding signal (z-score)", "setting": "[3]", "value": -0.296}, {"measurement": "glycan array binding signal (z-score)", "setting": "[4]", "value": 0.104}, {"measurement": "glycan array binding signal (z-score)", "setting": "[5]", "value": 0.111}, {"measurement": "glycan array binding signal (z-score)", "setting": "[6]", "value": 0.169}, {"measurement": "glycan array binding signal (z-score)", "setting": "[7]", "value": 0.212}, {"measurement": "glycan array binding signal (z-score)", "setting": "[8]", "value": 0.456}, {"measurement": "glycan array binding signal (z-score)", "setting": "[9]", "value": 0.13}, {"measurement": "glycan array binding signal (z-score)", "setting": "[10]", "value": 0.235}, {"measurement": "glycan array binding signal (z-score)", "setting": "[11]", "value": -0.744}, {"measurement": "glycan array binding signal (z-score)", "setting": "[12]", "value": -0.569}, {"measurement": "glycan array binding signal (z-score)", "setting": "[13]", "value": -0.024}, {"measurement": "glycan array binding signal (z-score)", "setting": "[14]", "value": -0.346}, {"measurement": "glycan array binding signal (z-score)", "setting": "[15]", "value": -0.307}, {"measurement": "glycan array binding signal (z-score)", "setting": "[16]", "value": 1.27}, {"measurement": "glycan array binding signal (z-score)", "setting": "Fuc(a1-2)Gal6S(b1-4)Glc", "value": -0.066}, {"measurement": "glycan array binding signal (z-score)", "setting": "[17]", "value": -0.089}, {"measurement": "glycan array binding signal (z-score)", "setting": "Fuc(a1-2)[Gal(a1-3)]Gal", "value": 0.247}, {"measurement": "glycan array binding signal (z-score)", "setting": "[18]", "value": 0.057}, {"measurement": "glycan array binding signal (z-score)", "setting": "[19]", "value": -0.559}, {"measurement": "glycan array binding signal (z-score)", "setting": "[20]", "value": -0.445}, {"measurement": "glycan array binding signal (z-score)", "setting": "[21]", "value": 5.75}, {"measurement": "glycan array binding signal (z-score)", "setting": "[22]", "value": -0.41}, {"measurement": "glycan array binding signal (z-score)", "setting": "[23]", "value": -0.763}, {"measurement": "glycan array binding signal (z-score)", "setting": "[24]", "value": 0.399}, {"measurement": "glycan array binding signal (z-score)", "setting": "[25]", "value": -0.838}, {"measurement": "glycan array binding signal (z-score)", "setting": "[26]", "value": -0.498}, {"measurement": "glycan array binding signal (z-score)", "setting": "[27]", "value": -0.24}, {"measurement": "glycan array binding signal (z-score)", "setting": "[28]", "value": -0.04}]}
